This note sets out measurements from the antibiotic and cytotoxicity screens of Wong et al. (2023).

Molecules are shown by their SMILES. The list shows a part of the results.

The subject of the test is HSkMC (human skeletal muscle cells). Nature of the test: cytotoxicity call (relative viability < 0.9). The conditions noted are these: 10 µM.
`C[C@@H]1CCCCO[C@@H](CN(C)Cc2ccncc2)[C@@H](C)CN([C@H](C)CO)C(=O)c2cc(NC(=O)Cc3ccccc3)ccc2O1`: the cytotoxicity call is “inactive”.
For `C[C@@H]1CN([C@@H](C)CO)C(=O)c2ccccc2-c2ccccc2CO[C@H]1CN(C)C(=O)Nc1ccc(-c2ccccc2)cc1`, the cytotoxicity call is “inactive”.
Take `CC1=CC(C)(C)N(C(=O)/C=C/c2ccccc2)c2ccc(C)cc21`: the cytotoxicity call was “inactive”.
Next, `C[C@@H]1CCCCO[C@H](CN(C)Cc2ccccc2)[C@H](C)CN([C@@H](C)CO)C(=O)c2cc(NC(=O)Cc3ccccc3)ccc2O1`: “inactive”.
Regarding `CC[C@H]1OC(=O)C[C@@H](O)[C@H](C)[C@@H](O[C@@H]2O[C@H](C)[C@@H](O[C@H]3C[C@@](C)(O)[C@@H](O)[C@H](C)O3)[C@H](N(C)C)[C@H]2O)[C@@H](CC=O)C[C@@H](C)C(=O)/C=C/C(C)=C/[C@@H]1CO[C@@H]1O[C@H](C)[C@@H](O)[C@@H](OC)[C@H]1OC`, the cytotoxicity call is “inactive”.
For the molecule `CS(=O)(=O)N1C[C@@H]2OCC[C@@H]2[C@H](C(=O)NCc2cccnc2)C1`, the cytotoxicity call was “inactive”.
Next, `C[C@H](CO)N1C[C@H](C)[C@H](CN(C)Cc2ccc(C(=O)O)cc2)Oc2ccc(NS(=O)(=O)c3ccccc3)cc2CC1=O`: “inactive”.
Take `O=C(C[C@@H]1CC[C@H]2[C@@H](COC[C@H](O)CN2S(=O)(=O)c2ccc(F)cc2)O1)NCc1ccc(Cl)c(Cl)c1`: the cytotoxicity call is “inactive”.
For `COC[C@@H](C)NC(=O)C(=O)NC1CC1`, the cytotoxicity call was “inactive”.
Regarding `NC(=O)CSc1ncn(-c2ccccc2)n1`, the cytotoxicity call is “inactive”.
Under `Cc1ccc(S(=O)(=O)Nc2ccc3c(c2)C(=O)N([C@@H](C)CO)C[C@H](C)[C@@H](CN(C)Cc2ccc(C(=O)O)cc2)OCCCC[C@H](C)O3)cc1` stands “inactive”; under `COc1ccc(CN(C)C[C@@H]2Oc3ccc(NC(=O)Nc4cccc5ccccc45)cc3C(=O)N([C@@H](C)CO)C[C@@H]2C)cc1`, “inactive”; under `Cc1noc(C)c1S(=O)(=O)Nc1ccc2c(c1)C(=O)N([C@@H](C)CO)C[C@H](C)[C@@H](CN(C)S(=O)(=O)c1cccs1)O2`, “inactive”.
As to `CS(=O)(=O)Nc1ccc2c(c1)[C@H]1C[C@@H](CC(=O)NCc3ccc(-c4ccccc4)cc3)O[C@@H](CO)[C@H]1O2`, the cytotoxicity call was “inactive”.
Turning to `COCCN1C[C@@H]2CN(C(=O)c3cnn(C)c3)C[C@H]2C1=O`, the cytotoxicity call was “inactive”.
Next, `COc1ccc(CN(C)C[C@@H]2Oc3ccc(NC(=O)Cn4cnnn4)cc3CC(=O)N([C@@H](C)CO)C[C@@H]2C)cc1`: “inactive”; `Cc1scc2c1N(C(=O)CN1CCN(C)CC1)c1ccccc1NC2=O.Cl`: “inactive”.
Next, `C[C@H](CO)N1C[C@H](C)[C@H](CN(C)CC2CCCCC2)Oc2ccc(NC(=O)CCN3CCOCC3)cc2CC1=O`: “inactive”; `C[C@@H]1CN([C@@H](C)CO)S(=O)(=O)c2ccc(C#CC3(O)CCCC3)cc2O[C@H]1CN(C)C(=O)Nc1ccccc1`: “inactive”.
On to `COc1ccc2c3c([nH]c2c1)[C@H](CO)N(C[C@]13CN(Cc2cc(on2)-c2ccccc2)C1)C(=O)Nc1ccc(cc1)F`, for which the cytotoxicity call was “active”.
Under `C[C@@H]1CCCCO[C@@H](CN(C)C(=O)Nc2ccc3c(c2)OCO3)[C@@H](C)CN([C@H](C)CO)C(=O)c2cc(NC(=O)c3ccncc3)ccc2O1` stands “inactive”.
As for `C[C@@H]1CCCCO[C@H](CN(C)C(=O)C2CCCCC2)[C@H](C)CN([C@@H](C)CO)C(=O)c2cc(NC(=O)Nc3cccc4ccccc34)ccc2O1`, the cytotoxicity call is “inactive”.
Next, `COc1ccc(CN(C)C[C@@H]2OCCCC[C@H](C)Oc3ccc(NC(=O)Nc4ccc5c(c4)OCO5)cc3C(=O)N([C@H](C)CO)C[C@@H]2C)cc1`: “inactive”; `C[C@H](CO)N1C[C@H](C)[C@H](CN(C)Cc2ccc(Cl)c(Cl)c2)Oc2ccc(NC(=O)NC3CCCCC3)cc2CC1=O`: “inactive”; `CC(C)NC(=O)N[C@H]1CC[C@H](CCN)O[C@H]1CO`: “inactive”.
Under `C[C@@H]1CN([C@@H](C)CO)C(=O)c2cccc(NC(=O)c3ccc(-c4nccs4)cc3)c2O[C@H]1CN(C)C(=O)Nc1ccc(F)cc1` stands “inactive”; under `C[C@H]1CN([C@@H](C)CO)C(=O)c2cc(-c3ccncc3)cnc2O[C@@H]1CN(C)S(=O)(=O)c1ccc(F)cc1`, “inactive”.
Regarding `O=C(N[C@@H]1CC[C@@H](CCn2cc(C3(O)CCCC3)nn2)O[C@@H]1CO)C1CCOCC1`, the cytotoxicity call is “inactive”.
Next, `CC(C)NC(=O)N(C)C[C@H]1Oc2ccc(NS(=O)(=O)c3cccs3)cc2CC(=O)N([C@@H](C)CO)C[C@H]1C`: “inactive”.
